According to PubChem BioAssay AID485344 (National Center for Advancing Translational Sciences (NCATS), 2010):
Screen size: about 340,000 compounds; about 6,900 (2%) were called active. Rule as the data show it: active = inhibition above about 30%; inactive = below that, where a call was filed. The entries are a selection whose mix differs from that of the whole data set. The source gives no active or inactive call for entries shown without one.

target: D(2) dopamine receptor (Homo sapiens) (UniProt P14416); test: HTS Assay for Allosteric Antagonists of the Human D2 Dopamine Receptor: Primary Screen for Antagonists; conditions: HEK293 TREx D2 cells, calcium flux, dopamine EC80; at 10 µM; stronger effect = higher value; also: 0% is about no effect
Summary of the method: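 Calcium flux kinetic readout in an inducible HEK293 TREx D2 line plated overnight at 30 C. After 180 s compound exposure, an EC80 dopamine challenge follows with another 180 s kinetic read to detect antagonism.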

Chain of UniProt P14416 (P14416 whole entry, looked up): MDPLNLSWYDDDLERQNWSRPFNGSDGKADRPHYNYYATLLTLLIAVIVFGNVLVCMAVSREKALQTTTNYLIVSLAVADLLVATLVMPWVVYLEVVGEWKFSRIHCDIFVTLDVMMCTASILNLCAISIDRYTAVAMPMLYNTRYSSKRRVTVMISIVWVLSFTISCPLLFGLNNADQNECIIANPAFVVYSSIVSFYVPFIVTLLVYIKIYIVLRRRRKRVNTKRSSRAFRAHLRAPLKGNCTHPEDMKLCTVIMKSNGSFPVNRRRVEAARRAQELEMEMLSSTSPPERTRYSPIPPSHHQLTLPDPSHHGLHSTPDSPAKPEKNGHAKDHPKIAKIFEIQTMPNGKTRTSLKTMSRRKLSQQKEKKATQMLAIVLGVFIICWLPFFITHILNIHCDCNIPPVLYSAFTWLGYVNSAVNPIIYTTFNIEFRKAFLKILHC

| SMILES | inhibition |
| --- | --- |
| CCc1ccc(NC(=O)Cn2c(=O)n(Cc3nc(C)no3)c(=O)c3cc4c(cc32)OCO4)cc1 | 0.208% |
| Cc1ccc(CNc2nc3c(S(=O)(=O)c4ccc(C)c(C)c4)nnn3c3ccc(Cl)cc23)cc1 | 6.03% |
| O=C(CN1CCN(c2ccc(Cl)cc2)CC1)Nc1ccc(Cl)c(C(F)(F)F)c1 | 13.6% |
| Cc1ccc(CSc2oc(-c3ccco3)nc2S(=O)(=O)c2ccc(Br)cc2)cc1 | -16.6% |
| Cc1ccc(CNC(=O)CCn2ccc3cc(S(=O)(=O)N4CCCC4)ccc32)cc1 | 4.35% |
| Cc1ccccc1-n1ncc(C(C)NC(=O)c2ccccc2)c1C (centres undefined) | active: 36.3% |
| Cc1ccc(C)c(N2CCN(C(=O)c3cc4cc5ccc(C)cc5nc4s3)CC2)c1 | 8.99% |
| CCOCCCNC(=O)c1cc2c(=O)n3ccccc3nc2s1 | -13.8% |
| COc1cc(C(=O)NC2CCN(Cc3ccccc3)CC2)cc(Cl)c1OC | active: 88.9% |
| O=C(/C=C\c1ccc2c(c1)OCO2)NC1CC(=O)N(c2ccc(F)cc2)C1 (centres undefined) | -5.22% |
| CCOC(=O)c1ccc(NC(=O)CCc2c(C)n(CC)c3cc(-c4ccccc4OC)nn3c2=O)cc1 | -8.62% |
| CCc1cccc(-n2c(=O)c3cccnc3n2CC(=O)NCc2ccccc2Cl)c1 | 2.34% |
| CCOC(=O)c1[nH]c(C)c(CCC(=O)NCc2ccc(C)cc2)c1C | -5.2% |
| COc1ccccc1Nc1nn2c(=O)c3ccc(C(=O)Nc4ccc(F)cc4)cc3nc2s1 | 12.8% |
| NC(=O)c1cc(S(=O)(=O)NCc2ccc(Br)cc2)cs1 | 10.2% |
| CCOc1ccc2oc(=O)cc(CN3CCN(C(=O)c4cccc(F)c4)CC3)c2c1 | 1.4% |
| CCCN(CCC)CCNC(=O)Cn1ncc2c([nH]c3ccc(C)cc32)c1=O | 4.67% |
| CC(NC(=O)C1CCN(C(=O)N2CCOc3ccc(Cl)cc32)CC1)c1ccccc1 (centres undefined) | 0.155% |
| COc1ccc(N2CCN(C(=O)c3nn(C)c4c3CS(=O)(=O)c3ccccc3-4)CC2)cc1 | -5.67% |
| COc1ccc(-c2nc3c(c(SCc4cc(C)ccc4C)n2)Cc2c(CO)cnc(C)c2O3)cc1 | -6.43% |
| COc1ccc(CCNC(=O)CS(=O)Cc2nc(-c3ccc(C)cc3)oc2C)cc1OC (centres undefined) | 20% |
| O=C(CCSCc1ccc(Cl)cc1)N1CCN(c2ccccc2F)CC1 | 3.7% |
| CCN(c1ccccc1)S(=O)(=O)c1ccc(NC(=O)c2cc(=O)c3ccc(C)c(C)c3o2)cc1 | 3.33% |
| Cc1ccc2c(CC(=O)Nc3c(C(=O)c4ccc(F)cc4)oc4ccccc34)coc2c1 | -2.77% |

| SMILES | inhibition |
| --- | --- |
| Cc1nc2c(c(C)nn2-c2ccccc2)c(C)c1CCC(=O)Nc1ccc(F)cc1 | -12% |
| COc1cc(Nc2nc(SCc3cccc(Cl)c3)nc3ccccc23)cc(OC)c1 | 0.481% |
| COc1cccc2c1[C@@H]1CN(CCCCn3c(=O)[nH]c4c(sc5ncc(-c6ccccc6)nc54)c3=O)C[C@@H]1CO2 | active: 55.8% |
| Fc1ccc(Nc2c3c(nc4nncn24)CCC3)cc1 | -8.56% |
| Cc1cc(C)n(-c2nnc(Nc3ccc(C(C)C)cc3)c3ccccc23)n1 | 8.86% |
| COc1ccc(CNCc2ccc3c(c2)n(C)c(=O)n3C)cc1 | -1.61% |
| COc1cccc(C(=O)NC(=O)Nc2ccc(-n3nc(C(F)(F)F)cc3C(F)(F)F)cc2)c1 | -0.699% |
| CC(=O)c1ccc(NC(=O)C2=CC(c3cccs3)=NS(=O)(=O)N2C)cc1 | -2.48% |
| O=C(CCNS(=O)(=O)c1cccc2nonc12)NC1CCCCC1 | active: 30.5% |
| O=C(COCc1cc(-c2cccs2)on1)NCc1ccccc1Cl | 3.4% |
| COc1cc(C2c3c(oc4ccccc4c3=O)C(=O)N2c2nc(C)c(C)s2)ccc1O (centres undefined) | 3.28% |
| Cc1nc2nc(NC(=O)c3ccc(F)cc3)[nH]n2c(=O)c1Cc1ccccc1 | -11.2% |
| O=C(NCc1ccccc1F)C1CCN(Cc2cc3ccccc3n2Cc2cccc(Cl)c2)CC1 | 3.66% |
| CC(=O)c1cc(-c2ccc(F)cc2)n(CC(=O)NC(C)c2ccccc2)c1C (centres undefined) | -9.23% |
| Cc1ccccc1NC(=O)Nc1ccc2nc(N3CCN(C)CC3)cc(C)c2c1 | 9.25% |
| Cn1c(=O)oc2cc(S(=O)(=O)CCC(=O)NCCc3ccccc3)ccc21 | 5.1% |
| Cc1cccn2c(=O)c(/C=C(\C#N)c3nc4ccccc4s3)c(Oc3ccc(Br)cc3)nc12 | 4.65% |
| COc1ccc(NC(=O)C2CCCN(S(=O)(=O)c3ccc(Cl)cc3)C2)cc1 (centres undefined) | 12% |
| Cc1ccccc1C(=O)NC1CC2CCC(C1)N2Cc1ccccc1 (centres undefined) | active: 71.7% |
| Cc1ccc(Cl)cc1NC(=O)C(NS(=O)(=O)c1cccc2nsnc12)c1ccccc1 (centres undefined) | -7.36% |
| Cc1ccc(C)c(N2CCN(c3nccn4nc(-c5ccc(Br)cc5)cc34)CC2)c1 | 2.12% |
| Cc1cccc(NC(=O)CN2c3ccccc3S(=O)(=O)c3ccccc32)c1C | -8.09% |
| COc1ccc(-c2cc(OC(=O)c3ccc(F)cc3)c3c(C)oc(C)c3c(=O)c2)cc1OC | 19.1% |
| COc1ccc(-c2noc(CSc3nnc(-c4ccccc4)n3-c3ccc(F)cc3)n2)c(OC)c1 | -2.79% |

| SMILES | inhibition |
| --- | --- |
| Cc1ccc(Cc2c(C)nn(-c3nc(C)c(C(=O)N4CCCCC4C)s3)c2C)cc1 (centres undefined) | 4.87% |
| COc1ccc(NC(=O)C2CCCN(S(=O)(=O)c3c(C)n[nH]c3C)C2)cc1OC (centres undefined) | -9.05% |
| CC(C)NC(=O)c1ccc(C2SCC(=O)N2Cc2ccccc2)cc1 (centres undefined) | active: 50.3% |
| CCOC(=O)c1ccccc1NC(=O)N1CCCN(S(=O)(=O)c2ccc3c(ccn3CC)c2)CC1 | -12% |
| Cc1cccc(-c2nc(CCNC(=O)c3ccccc3Br)cs2)c1 | 20.2% |
| CCOc1ccc(-c2nc3c(C#N)c[nH]n3c2NC2CCCCC2)cc1 | -3.03% |
| O=C(Nc1cc(F)ccc1F)c1ccc2c(c1)nnn2C1CCCC1 | 1.09% |
| CCc1ccc(CNC(=O)C2CCCN(c3nn4cc(-c5ccc(F)cc5)nc4s3)C2)cc1 (centres undefined) | 5.05% |
| Cc1ccc(C)c(N2CCN(CCCNC(=O)CCC(=O)N3CCOc4ccc(Cl)cc43)CC2)c1 | active: 55.7% |
| CCOC(=O)C1CCN(C(=O)C2CCN(c3nnc(C)c4c(C)n(-c5ccccc5)nc34)CC2)CC1 | -9.56% |
| COCC(=O)N(Cc1nc2sc(C)c(C)c2c(=O)[nH]1)C1CCCCC1 | active: 31.1% |
| CCCC(=O)Nc1cc(C(=O)NCc2ccc(OC)cc2)ccc1S(=O)(=O)c1ccc(Cl)cc1 | 9.57% |
| Cc1nn(CC(=O)NCc2ccccc2Cl)c(=O)c2cccn12 | 19.8% |
| COC(=O)c1sccc1S(=O)(=O)N(CC(=O)NCc1ccccc1)c1ccc(C)c(C)c1 | 8.87% |
| CCOC(=O)c1c(C)c(-c2ccccc2)n(CC(=O)Nc2cccc(F)c2)c1C | -3.19% |
| CCOc1ccc(NC(=O)CCS(=O)(=O)c2ccc(Br)s2)cc1 | -15.1% |
| Cc1cccc(NC(=O)CN2C(=O)COc3ccc(S(=O)(=O)N4CCC(C)CC4)cc32)c1C | 18.5% |
| O=C(c1ccccc1)c1ccc2c(c1)OCCOCCOCCOCCO2 | active: 50.3% |
| Cc1ccc(S(=O)(=O)N(CC(=O)N2CCc3ccccc3C2)c2ccc(C)c(C)c2)cc1 | -22.5% |
| O=C(Nc1noc2ccccc12)c1c(F)cccc1F | -6.44% |
| O=C(Cn1c(N2CCN(C/C=C/c3ccccc3)CC2)nc2ccccc21)c1ccccc1 | active: 47.6% |
| CCCCNC(=O)CCn1c(=O)c2cccn2c2ccc(F)cc21 | 10.3% |
| CCOC(=O)CNC(=O)c1cc2c(=O)n3cccc(C)c3nc2s1 | -8.18% |
| CCCn1c2ccccc2c2cnn(CC(=O)NCCc3ccc(OCC)c(OCC)c3)c(=O)c21 | 11.9% |

| SMILES | inhibition |
| --- | --- |
| COc1cccc(C2CC(=O)Nc3c2c(=O)nc2c(C)cccn32)c1 (centres undefined) | 7.2% |
| CCOc1cc(CNCCc2ccc(S(N)(=O)=O)cc2)ccc1OCc1ccc(Cl)cc1 | active: 64.9% |
| Cc1ccc(N2C(=O)C3C(C2=O)C(C(=O)c2ccc(Cl)cc2)N2CCCC32)cc1 (centres undefined) | active: 33.2% |
| O=C(Nc1ncc(Cc2ccc(Cl)cc2)s1)c1ccc2c(c1)CC(c1ccccc1)OC2=O (centres undefined) | -14.7% |
| COc1ccc(Nc2ncc(C(=O)Nc3cc(Cl)c(OC)cc3OC)c3ccccc23)cc1 | -4.07% |
| CCOc1ccc(N2CC(C(=O)NCCc3ccc(S(N)(=O)=O)cc3)CC2=O)cc1 (centres undefined) | active: 37.8% |
| C/C(=N\NC(=O)c1nnn(-c2nonc2N)c1-c1ccc2c(c1)OCO2)c1cccs1 | active: 36.8% |
| CC(=O)N1CCCc2cc(S(=O)(=O)N3CCCC(C(=O)Nc4cccc(F)c4)C3)ccc21 (centres undefined) | 4.58% |
| O=c1c2cc3c(cc2n(Cc2cccc(Cl)c2)c(=O)n1Cc1nc(-c2ccccc2)no1)OCO3 | 10.2% |
| COc1ccc(N2CCN(C(=O)c3ccc(Nc4nc5ccccc5n5nnnc45)cc3)CC2)cc1 | -17.1% |
| CCOc1ccc(NC(=O)CSc2ncc3c(n2)-c2cc(Cl)ccc2N(C)S3(=O)=O)cc1 | -1.08% |
| CCN(CC(=O)NCc1ccc(Cl)cc1)C(=O)COc1cccc(Cl)c1 | active: 33.1% |
| CC1=C(C(=O)NCc2ccc(C)cc2)C2(CCCCC2)OC1=O | 17.4% |
| Cc1ccc2cccc(NC(=O)C(C)Oc3ccc(C)c(C)c3)c2n1 (centres undefined) | 19.1% |
| Cc1noc(Cn2c(=O)c3ccccc3n(CC(=O)Nc3ccc(Cl)cc3)c2=O)n1 | 7.28% |
| O=C(Nc1cc(Cl)ccc1Cl)C1(c2cccs2)CCOCC1 | 17.3% |
| CC(=O)Nc1ccc(S(=O)(=O)NC2(C(F)(F)F)C(=O)Nc3c2c(=O)[nH]c(=O)n3-c2ccc(C)c(C)c2)cc1 (centres undefined) | -9.34% |
| Cc1cccc(NC(=O)CCNS(=O)(=O)c2cccc3nonc23)c1 | -7.22% |
| CCN1c2ccccc2-c2nc(SCC(=O)Nc3c(C)cc(C)cc3C)ncc2S1(=O)=O | 3.23% |
| CCN(CC)CCOC(=O)c1ccc(Cl)cc1Cl | active: 32.7% |
| COc1cccc(-n2c(-c3ccco3)nc3c(cnn3-c3ccc(C)cc3)c2=O)c1 | 13.8% |
| Cc1ccc(C(=O)CSc2nnc(-c3ccccc3)n2-c2ccccc2)cc1 | 0.85% |
